Consider 56 variants from the RNAGym collection of RNA variant scans (doi:10.7554/elife.90254).

Read counts are not given, so values of variants with three or more changes are uncertain.

To fix the notation:
B1: LINE1-mini (parent)
chain: GGCAGAGCUCAACACAGCGUGGCAAAGUGGCUGUGGCUAGACUGCC

This data set covers variants of B1. Nature of the data set: self-cleavage, relative activity (ratio to wild type); higher = more cleavage; in vitro, sequencing; the parent is a self-cleaving ribozyme.
As for GGCAGAUCUCAACACAGCGUGGCAAAGUGGUUGUGGCUAGACUGCA [G7U C31U C46A], the self-cleavage was determined as 0.17.

Regarding GGCAGAGAUCCGCACAGCGUGGCAAAGUGGCUGUGGCUAGACUGCC [C8A A11C A12G], the self-cleavage amounted to 0.01. For the variant GGCAGAGAUCAACACCGUGUGGCAUAGUGGCAGUGGCUACACUGCC [C8A A16C C18U A25U U32A G40C], the self-cleavage was found to be 0.09.

Turning to GGCAGAGAUCAACACCGCGUGGCAAAGUGGGUGUGGCUAGACUGCC [C8A A16C C31G], the self-cleavage came out at 0.05. Under GGCAGAUCUCAACACAGCACGGCAAAGUGUCUGUGGGUAGACUGCC [G7U G19A U20C G30U C37G] stands 0.01. For the variant GGCAGAGAUCAACGCAGCGUGGCAAAAUGGCUCUGGCUAGAUUGCC [C8A A14G G27A G33C C42U], the self-cleavage was 0.1. Under GGCAGAUCUCAACACAGCGUGGCAAAGCGGUGGUGGCUAGACUGCC [G7U U28C C31U U32G] stands 0.01. To GGCAGAGAUCAACGCAGCGUGGCAAAGUGCCUGUAGCUAGACUGCC [C8A A14G G30C G35A] belongs 0.27. Under GGCAGAGAUCAACACCGCCUGGCAAAGUGGCUGUGGCUAGCCUGCC [C8A A16C G19C A41C] stands 0.13. On to GGCAGAGAUCAACUCAGUGCGGCAAAGUGGCUGUUGCUAGACUGCC [C8A A14U C18U U20C G35U], for which the self-cleavage amounted to 0.1. Regarding GGCAGAUCACAACACAGCGUUGCAAAGUGGCUGUGGCUAGACUGCC [G7U U9A G21U], the self-cleavage was found to be 0.23.

With GGCAGAUCUCAACACAGCGUCACAGAGUGGCUGUGGCUAGACUGUC [G7U G21C G22A A25G C45U], the self-cleavage worked out at 0.1.

As for GGCAGAGAUCGAUACAGCGUGGCAAAGUGGCUGUGGCUAGAUUGCA [C8A A11G C13U C42U C46A], the self-cleavage was determined as 0.04. Under GGCAGAUCUCAACACAGCGAGGCAAAGUGGCUGUGGCUAGACUGCA [G7U U20A C46A] stands 0.03.

GGCAGAUCACAACACAGCGUGGCAUAGUGGCUGUGGCUAGACUGCC [G7U U9A A25U]: the self-cleavage came out at 0.04.

Regarding GGCAGAUCUCAACACAUCGUGGCAAAGUGGCUGUGGCUCGACUGCC [G7U G17U A39C], the self-cleavage is 0.04. For the variant GGCAGAGAUCAACGCACCGUGGCAAGGUGGCUGUGGCUAGACUGCC [C8A A14G G17C A26G], the self-cleavage stood at 0.06. With GGCAGAUCUCAACACAGCGUUGCAAAGCGGCUUUGGCUAGACUGCC [G7U G21U U28C G33U], the self-cleavage stood at 0.05. To GGCAGAGAUCGACACAGCGUGGCAAAGAGGCUGAUGCGAGUCUGCC [C8A A11G U28A U34A G35U U38G A41U] belongs 0.01; to GGCAGAUCUCAACACAGCGUAGCAAAGUGGCUGUGGCCAGACUGCC [G7U G21A U38C], 0.15. Under GGCAGAUCGCAAAACAUCGUUGCAAAGUCCCUGUGGCUAGACUGCC [G7U U9G C13A G17U G21U G29C G30C] stands 0.01; under GGCAGAGAUCCACACAGCGUUGCAAAGUGGCGGUGGCUAUACUGCC [C8A A11C G21U U32G G40U], 0. With GGCAGAGAUCAACCCAGCGUGGCAAAAUGGCUGUGGCUAGACUGCG [C8A A14C G27A C46G], the self-cleavage was 0.07.

In the case of GGCAGAUCCCAACACAGCGUGGCAAAGUGGCUGUGGAUAGACUGCC [G7U U9C C37A], the self-cleavage was determined as 0.02. Regarding GGCAGAUCUCAACACAGCCUGGCAAAGUGGCGGGGGCUAGCCUGCC [G7U G19C U32G U34G A41C], the self-cleavage came to 0.02.

Consider GGCAGAGAUCAGCACAGCGUGGCAUAAUGGCUGUGGCUAGACUGUC [C8A A12G A25U G27A C45U], for which the self-cleavage is 0.06. GGCAGAUCUCAACACAGCUUGGCAAAGUGGCUGUGGCUAAACUGCC [G7U G19U G40A]: the self-cleavage amounted to 0. As to GGCAGAUCUCAACACAGCAUGGCAAAGUGGUUGUGGCUAGACUGCC [G7U G19A C31U], the self-cleavage was 0.04. Under GGCAGAUCUCAACACAGCAUGGCAAAGUGGAUGUGGCUAGACUGCC [G7U G19A C31A] stands 0.04. To GGCAGAUCUCAACACAGCGUGGCAAAGUGGCUUUGGCUCGACUGCC [G7U G33U A39C] belongs 0.13. For GGCAGAUCUCAACACAGCUUGGCAAAGUGGCUGUCGCUAGACUGAC [G7U G19U G35C C45A], the self-cleavage came to 0.04. With GGCAGAUCUCAACACAGCAUGGCAAAGUGGCUGUGGCUAGCCUGCC [G7U G19A A41C], the self-cleavage is 0.2. Under GGCAGAGAUCAACACGGCGUGGCAAAGUGGCUGUGGCUCGACUGCC [C8A A16G A39C] stands 0.08; under GGCAGAGAUCGACACCGCGUGGCAAAGUGUCUGUGGCCAGACUGCC [C8A A11G A16C G30U U38C], 0.01; under GGCAGAUCUCAACACAGCGUGGCAAAGUUGAUGUGUCUAGACUGCC [G7U G29U C31A G36U], 0.02. To GGCAGAUCUCAACACAGCGUGGCAAAGUGGCUUUGGCUAGCCUGCC [G7U G33U A41C] belongs 0.28. On to GGCAGAGAUCGACACAGCGUGGCAAAGUGGCUGUGGCUAGACUGCG [C8A A11G C46G], for which the self-cleavage worked out at 0.03. Under GGCAGAUCUCAACACAGCGUGGCAAAAUGGCAGUGGCUAAACUGCC [G7U G27A U32A G40A] stands 0.02; under GGCAGAUCUCAACACAGCGUGGCAAAGUGGCUGUUGCUGGACUGCC [G7U G35U A39G], 0.05; under GGCAGAUCUCAACACAGCGUGGCAAAAUAGCUGUGGCUAGACUGCC [G7U G27A G29A], 0.12. For the variant GGCAGAGAUCAACGCAGCGUGGCGAAGUGGCUGUGGCUAGACUGCC [C8A A14G A24G], the self-cleavage was determined as 0.64. Under GGCAGAGAUCGUCACAGCAUGGCAAAGUGGCUGUGGCUAGACUGCC [C8A A11G A12U G19A] stands 0.03; under GGCAGAGAUCAACUCAGCGUGUCAAAGUAGCUGUGUGUAUACUGCC [C8A A14U G22U G29A G36U C37G G40U], 0.04. As for GGCAGAGAUCGACGCAGCGUCACAAAAUGGCUGGGGCUGGACUGCC [C8A A11G A14G G21C G22A G27A U34G A39G], the self-cleavage was 0.04. To GGCAGAUCUCAACACAGCGUGGCAAAGAGACCGUGGCUAGACUGAC [G7U U28A G30A U32C C45A] belongs 0.09. On to GGCAGAGAUCACCACAGCGCGGCAAAGUGGCUUUGGCUAGACUGCC [C8A A12C U20C G33U], for which the self-cleavage worked out at 0.05.

In the case of GGCAGAUCCCAACACAGCGUGGCAAAGUGGCCGUGGCUAAACUGCC [G7U U9C U32C G40A], the self-cleavage was 0.01.

As for GGCAGAGAUCAGCCCAGCGUGGCAAAGUGGCUGUGGCUAGACUGCC [C8A A12G A14C], the self-cleavage was 0.05. To GGCAGAUCACAACACAGCGUGACAAAGUGGCUGUGGUUAGACUGCC [G7U U9A G22A C37U] belongs 0.04.

As to GGCAGAGAUCACCACAGGGUGGCAAAGUGGCUGGGGCUAGACUGCC [C8A A12C C18G U34G], the self-cleavage is 0.05. To GGCAGAUCUCAACACACCGUGGCAAAGUGGAUGUGGCUAGACUGCC [G7U G17C C31A] belongs 0.04. Under GGCAGAUCUCAACACAGCGUGGCAAAUUGGCUGUGGCUUGACUGCC [G7U G27U A39U] stands 0.06; under GGCAGAUCUCAACACAGCGUGGCAAAGUGGCUGAGGCUAGAUUGCC [G7U U34A C42U], 0.03.

As for GGCAGAGAUCGCCCCAGCGUGGCAAAUUGGCUGUGGCUAGACUGCC [C8A A11G A12C A14C G27U], the self-cleavage stood at 0.01.

Turning to GGCAGAGAUCUACACAGGUUGGCAAAGUCGCUGUGGCUAGACUGCC [C8A A11U C18G G19U G29C], the self-cleavage came to 0.03. For GGCAGAUCUCAACACAGCGUGACAAAGUGGCCGUGGCUAGACUGCC [G7U G22A U32C], the self-cleavage came to 0.03.
